According to PubChem BioAssay AID1468 (National Center for Advancing Translational Sciences (NCATS), 2008):
Values joined by “and” are separate entries in the source; they are usually repeats but may differ in a detail not shown here. Identical values can stand only once. The whole screen tested about 280,000 compounds, of which about 1,100 (0.39%) were called active. Inconclusive results, whose numbers are uncertain, are shown with a selection of clear calls. Calls follow the shape of the dose curve; as a rule, active = well fitted inhibition curve with a large enough effect; inconclusive = small, poorly fitted or top-dose-only effect, or effect the other way; inactive = flat fitted curve, though single readings scatter. Potencies of inconclusive entries are doubtful fits and often do not repeat.

The molecules below were run against Microtubule-associated protein tau (Homo sapiens) (UniProt P10636) (assay: qHTS for Inhibitors of Tau Fibril Formation, Fluorescence Polarization). Details: K18 P301L tau heparin fibrillization, Alexa594 FP, 6 h; series mostly up to 57.7 µM; activity, negative = inhibition: at the top concentration.
Sequence of UniProt P10636 (P10636 whole entry, looked up): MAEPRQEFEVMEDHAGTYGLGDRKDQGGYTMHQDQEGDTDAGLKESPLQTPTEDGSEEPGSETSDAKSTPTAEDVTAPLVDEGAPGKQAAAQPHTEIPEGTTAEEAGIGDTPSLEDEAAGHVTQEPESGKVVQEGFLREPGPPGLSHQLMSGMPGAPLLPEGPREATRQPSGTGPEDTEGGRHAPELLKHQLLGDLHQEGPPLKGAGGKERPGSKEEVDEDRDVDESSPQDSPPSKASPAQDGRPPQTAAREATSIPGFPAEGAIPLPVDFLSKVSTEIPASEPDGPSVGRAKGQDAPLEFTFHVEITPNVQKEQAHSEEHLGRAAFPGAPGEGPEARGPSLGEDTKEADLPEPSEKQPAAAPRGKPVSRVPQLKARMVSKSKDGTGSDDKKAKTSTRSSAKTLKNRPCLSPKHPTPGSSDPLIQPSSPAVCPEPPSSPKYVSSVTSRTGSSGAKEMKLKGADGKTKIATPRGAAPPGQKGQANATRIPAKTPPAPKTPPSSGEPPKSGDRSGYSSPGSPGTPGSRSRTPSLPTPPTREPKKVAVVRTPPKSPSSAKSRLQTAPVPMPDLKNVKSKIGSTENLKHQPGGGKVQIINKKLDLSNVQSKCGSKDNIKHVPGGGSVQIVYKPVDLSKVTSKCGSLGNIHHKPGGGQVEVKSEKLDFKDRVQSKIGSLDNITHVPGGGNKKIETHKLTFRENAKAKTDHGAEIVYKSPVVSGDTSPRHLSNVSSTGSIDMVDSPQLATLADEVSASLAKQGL
In short: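 Steps: dispense K18 P301L tau (15 uM plus 0.24 uM Alexa 594 tracer, final) in pH 7 sodium acetate; add compound; add heparin (20 uM final); incubate 6 hr, 37 C; add ThT (30 uM final); after 1 hr ambient, read FP.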
% is scaled to controls: 0 for no effect and ±100 for the full control effect; potency is read from the fitted curve at half-maximal effect; tags tell the direction and shape of the fitted curve.
Also: nearly all actives have a fitted effect of over 55% in size.

Row | SMILES | activity, negative = inhibition | Potency
1 | CO[C@@H]1COC(=O)[C@H](C)NC(=O)C/C=C\[C@@H](C)[C@@H](NS(=O)(=O)c2ccc(C)cc2)COC(=O)C/C=C\[C@@H]1C | inactive: 4.63% [at 11.6 µM] | –
2 | Cc1ccc(F)cc1NC(=O)CCSc1nc(-c2ccco2)cc(C(F)(F)F)n1 | – | inconclusive: 7.08 µM [inhibitor, partial curve]
3 | CC(C)CCNC(=O)c1nn(C)c2c1CSc1ccccc1-2 | inactive: -4.42% | –
4 | COC(=O)c1c(-c2cccs2)csc1NC(=O)c1cc(OC)c(OC)c(OC)c1 | – | inconclusive: 17.8 µM [inhibitor, partial curve]
5 | COC(=O)c1cccc(NC(=S)NCc2ccc(Cl)cc2)c1 | – | inconclusive: 31.6 µM [inhibitor, single point]
6 | O=C(NC(=S)Nc1c(F)cc(F)cc1Br)c1ccc2c(c1)OCCO2 | – | inconclusive: 14.1 µM [inhibitor, partial curve]
7 | CCn1c(C)nc2cc(-c3nc4n(n3)Cc3ccccc3-4)ccc21 | – | inconclusive: 15.8 µM [inhibitor, partial curve]
8 | CSc1ccc(-c2nc3cnccn3c2Nc2ccc3c(c2)OCO3)cc1 | – | inconclusive: 15.8 µM [activator, partial curve]
9 | CCN(C(=O)c1cc2cc(Br)cc(OC)c2oc1=O)c1ccccc1 | inactive: -7.75% | –
10 | C/C(=N\Nc1nnc(C)c(=O)[nH]1)C(=O)O | – | inconclusive: 2.82 µM [inhibitor, partial curve, poor fit]
11 | CC1=CC(=O)c2ccccc2C1=O | – | inconclusive: 39.8 µM [inhibitor, single point] and inconclusive: 8.91 µM [inhibitor, partial curve]
12 | COc1cccc(CNc2ccc(N3CCC(C)CC3)cc2)c1OC | – | inconclusive: 28.2 µM [inhibitor, partial curve]
13 | C=CCn1nc(-c2ccccc2)c2c(C)onc2c1=O | – | inconclusive: 0.0251 µM [inhibitor, full curve, poor fit]
14 | Cc1ccc2c(c1)c(=O)c(S(=O)(=O)c1ccc(C)c(C)c1)cn2CC(=O)Nc1ccccc1 | – | inconclusive: 20 µM [inhibitor, partial curve]
15 | Oc1cc(Cc2ccccc2)cnc1CN1CCCCC1 | inactive: -0.835% | –
16 | Clc1ccc(Nc2ncnc3c2cnn3-c2ccccc2)cc1 | – | inconclusive: 35.5 µM [inhibitor, single point]
17 | CN1/C(=C/c2cc[n+](C)c3ccccc23)C=Cc2ccccc21 | – | inconclusive: 11.2 µM [inhibitor, partial curve, poor fit]
18 | CCOc1cccc(-c2nn(-c3ccccc3)cc2/C=C(/C#N)C(=O)NCCCn2ccnc2)c1 | – | inconclusive: 25.1 µM [inhibitor, partial curve, poor fit]
19 | CCOc1ccccc1C(=O)Nc1cc(-c2ccc(C)cc2)no1 | – | inconclusive: 39.8 µM [inhibitor, single point]
20 | O=C(N/N=C/c1ccc(O)cc1)c1[nH]c2ccc(Br)cc2c1-c1ccccc1 | – | inconclusive: 35.5 µM [inhibitor, single point]
21 | CCn1c(C(=O)N2CCCC(C(=O)NCCCc3ccccc3)C2)cc2sccc21 (stereo not given) | inactive: 2.33% | –
22 | COC(=O)C1=C(C)N=C2SC(C#N)=C(N)N2C1c1ccc(OCc2ccccc2)cc1 (stereo not given) | – | inconclusive: 25.1 µM [activator, single point]

Row | SMILES | activity, negative = inhibition | Potency
23 | CC1=CCC2COC(c3ccc[n+](Cc4ccccc4)c3)C1C2 (stereo not given) | – | inconclusive: 39.8 µM [activator, single point]
24 | CCOC(=O)N=Nc1c2ccccc2c2nc3no[nH]c3nc12 | – | inconclusive: 44.7 µM [inhibitor, single point]
25 | COc1cccc(CNc2nc3c(-c4cccc(C)c4)nnn3c3ccccc23)c1 | inactive: -14.2% | –
26 | CC(=O)c1ccc(NC(=O)Nc2ccc3c(c2)N(C)C(=O)CS3)cc1 | inactive: -3.22% | –
27 | CC[n+]1c(/C=C/c2c[nH]c3ccccc23)ccc2cc(C)ccc21 | – | inconclusive: 35.5 µM [inhibitor, partial curve]
28 | O=C(C1CC1)N1CCN(c2nc3c(F)cc(F)cc3s2)CC1 | – | inconclusive: 44.7 µM [inhibitor, single point]
29 | CC(C)Nc1ccc(-c2nc(-c3ccccn3)no2)cc1[N+](=O)[O-] | inactive: -10.4% | –
30 | COc1ccccc1C1CN(c2ccccc2)N=C1c1cccs1 (stereo not given) | – | inconclusive: 12.6 µM [activator, partial curve]
31 | Cc1cc2ccccc2n2c(SCC(=O)Nc3cccc(C(F)(F)F)c3)nnc12 | – | inconclusive: 12.6 µM [inhibitor, partial curve]
32 | COC(=O)c1cc(NC(=O)c2ccc3c(c2)N(Cc2cccc(Cl)c2)C(=O)c2ccccc2S3=O)cc(C(=O)OC)c1 (stereo not given) | – | inconclusive: 35.5 µM [inhibitor, single point]
33 | O=C(CSc1ncc2c(n1)-c1cc(Cl)ccc1N(Cc1ccccc1F)S2(=O)=O)Nc1cccc(C(F)(F)F)c1 | – | inconclusive: 8.91 µM [inhibitor, partial curve]
34 | N=C(N)SCCN | – | inconclusive: 25.1 µM [inhibitor, partial curve, poor fit] and inconclusive: 25.1 µM [inhibitor, single point]
35 | Cc1ccc(-n2c(C)nc3oc4ccccc4c(=O)c3c2=O)cc1 | inactive: -2.91% | –
36 | COc1ccc(-c2cc(C(=O)Nc3cccc(S(=O)(=O)NCc4ccco4)c3)c3ccccc3n2)cc1OC | – | inconclusive: 20 µM [inhibitor, partial curve]
37 | CS(=O)(=O)N1CCN(C2C3CC4CC(C3)CC2C4)CC1 (stereo not given) | – | inconclusive: 1.58 µM [inhibitor, single point]
38 | O=C(CSc1ncnc2[nH]ncc12)Nc1cccc(Oc2ccccc2)c1 | – | inconclusive: 28.2 µM [inhibitor, single point]
39 | O=C(O)/C=C/C(=O)Nc1cccnc1 | inactive: 1.26% | –
40 | CCOC(=O)c1ccc(NC(=O)CSc2nc(SC)ns2)cc1 | – | inconclusive: 15.8 µM [inhibitor, partial curve]
41 | CCOC(=O)c1ccc(NC(=O)CSc2nnc(COc3ccccc3)n2C)cc1 | – | inconclusive: 0.112 µM [inhibitor, partial curve, poor fit]
42 | O=C1C[C@@H](O)[C@@H](O)[C@@H]2[C@H]3C(=O)N(c4ccc(F)cc4F)C(=O)[C@@H]3CC[C@H]12 | inactive: -10.4% [at 11.6 µM] | –
43 | CC(C)CCNC(=O)C1CCN(S(=O)(=O)c2cccc3nsnc23)CC1 | inactive: 0.755% | –
44 | CNC(=S)N(CCc1c(C)[nH]c2ccc(C)cc12)Cc1ccco1 | – | inconclusive: 28.2 µM [activator, partial curve, poor fit]

Row | SMILES | activity, negative = inhibition | Potency
45 | CC(=O)c1ccc(NC(=O)CSc2nnc(NC(=O)Nc3ccccc3)s2)cc1 | – | inconclusive: 15.8 µM [inhibitor, partial curve]
46 | NC(C(=O)NC1C(=O)N2C(C(=O)O)=C(Cl)CSC12)c1ccccc1 (stereo not given) | – | inconclusive: 17.8 µM [inhibitor, partial curve]
47 | COc1ccc(Cl)cc1NC(=O)c1ncn(-c2ccccc2)n1 | – | inconclusive: 39.8 µM [inhibitor, single point]
48 | COc1ccc(C(=O)COC(=O)C(CC(C)C)N2C(=O)c3ccccc3C2=O)cc1 (stereo not given) | – | inconclusive: 12.6 µM [inhibitor, partial curve]
49 | COC(=O)c1ccc(Cn2c(SCC(=O)NCc3ccccc3)nc3ccccc32)cc1 | – | inconclusive: 44.7 µM [activator, single point]
50 | CSCCC(NS(=O)(=O)c1cccs1)C(=O)Nc1ccc(C)c(Cl)c1 (stereo not given) | – | inconclusive: 39.8 µM [inhibitor, single point]
51 | Cc1ccc(-c2csc3ncnc(SCC(=O)c4ccc5c(c4)OCCO5)c23)cc1 | – | inconclusive: 44.7 µM [inhibitor, single point]
52 | Cc1ccc(C(C)C)c(OCCN)c1 | inactive: 1.41% | –
53 | CCc1ccc(NC(=O)Cn2c(=O)n(-c3ccccc3)c(=O)c3ccc(C(=O)NCc4ccc5c(c4)OCO5)cc32)cc1 | – | inconclusive: 7.08 µM [inhibitor, partial curve]
54 | CCC(=O)Nc1nc2ccccc2n1Cc1ccccc1 | inactive: -9.28% | –
55 | CC1CCN(S(=O)(=O)c2ccc(C(=O)OCc3ccc4c(c3)OCO4)cc2)CC1 | – | inconclusive: 11.2 µM [inhibitor, partial curve, poor fit]
56 | O=C(CSc1c(Cl)cccc1Cl)NC1CCCc2ccccc21 (stereo not given) | inactive: -2% | –
57 | COc1cc(-c2nnc(CSc3nnc(Nc4ccc(Oc5ccccc5)cc4)s3)o2)cc(OC)c1OC | – | inconclusive: 5.62 µM [activator, full curve, poor fit]
58 | CC(=O)Oc1cc2c(C(=O)NCCCN3CCOCC3)c(C)oc2c2ccccc12 | inactive: -4.42% | –
59 | CC(C)(C)NC(=O)CSc1nc2ccccc2n1-c1ccccc1 | inactive: -5.25% | –
60 | CCCC(CCC)C(=O)Nc1cccc(-c2nc3cccnc3s2)c1 | inactive: -2.08% | –
61 | CCC(=O)OC1(C)C(=O)C=C2C=C(CCCCNC(=O)OC(C)(C)C)OC=C2C1=O (stereo not given) | – | inconclusive: 4.47 µM [inhibitor, single point]
62 | CC(C)OC(=O)CSc1nc(N)c(C#N)c(-c2ccco2)c1C#N | – | inconclusive: 1.26 µM [inhibitor, partial curve, poor fit]
63 | Cn1c(CO)cnc1SCC(=O)c1ccc(Cl)cc1 | – | inconclusive: 39.8 µM [inhibitor, single point]
64 | NC1=CC(=O)c2cccc3cccc1c23 | – | inconclusive: 20 µM [inhibitor, partial curve]
65 | CC(=C\C(=O)O)/C(=C/c1ccc(C)o1)C(=O)O | – | inconclusive: 39.8 µM [inhibitor, single point]
